Results on 42 compounds are retold here after paper PMC4336329 (PLoS ONE, 2015).

Each structure is given as a SMILES string. Among all 310,000 compounds or so, about 14,000 (4.5%) showed an effect of 50% or more. Effects have a minus sign here. This is one part of the list.
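Note: peak tail current of the secondary pulse compared with the same well before compound.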

This assay deals with human ether-à-go-go-related gene (hERG) potassium channel (human, UniProt Q12809). Briefly: primary screen, population patch clamp on CHO cells stably expressing hERG.
Chain of human ether-à-go-go-related gene (hERG) potassium channel (Q12809 whole entry, looked up): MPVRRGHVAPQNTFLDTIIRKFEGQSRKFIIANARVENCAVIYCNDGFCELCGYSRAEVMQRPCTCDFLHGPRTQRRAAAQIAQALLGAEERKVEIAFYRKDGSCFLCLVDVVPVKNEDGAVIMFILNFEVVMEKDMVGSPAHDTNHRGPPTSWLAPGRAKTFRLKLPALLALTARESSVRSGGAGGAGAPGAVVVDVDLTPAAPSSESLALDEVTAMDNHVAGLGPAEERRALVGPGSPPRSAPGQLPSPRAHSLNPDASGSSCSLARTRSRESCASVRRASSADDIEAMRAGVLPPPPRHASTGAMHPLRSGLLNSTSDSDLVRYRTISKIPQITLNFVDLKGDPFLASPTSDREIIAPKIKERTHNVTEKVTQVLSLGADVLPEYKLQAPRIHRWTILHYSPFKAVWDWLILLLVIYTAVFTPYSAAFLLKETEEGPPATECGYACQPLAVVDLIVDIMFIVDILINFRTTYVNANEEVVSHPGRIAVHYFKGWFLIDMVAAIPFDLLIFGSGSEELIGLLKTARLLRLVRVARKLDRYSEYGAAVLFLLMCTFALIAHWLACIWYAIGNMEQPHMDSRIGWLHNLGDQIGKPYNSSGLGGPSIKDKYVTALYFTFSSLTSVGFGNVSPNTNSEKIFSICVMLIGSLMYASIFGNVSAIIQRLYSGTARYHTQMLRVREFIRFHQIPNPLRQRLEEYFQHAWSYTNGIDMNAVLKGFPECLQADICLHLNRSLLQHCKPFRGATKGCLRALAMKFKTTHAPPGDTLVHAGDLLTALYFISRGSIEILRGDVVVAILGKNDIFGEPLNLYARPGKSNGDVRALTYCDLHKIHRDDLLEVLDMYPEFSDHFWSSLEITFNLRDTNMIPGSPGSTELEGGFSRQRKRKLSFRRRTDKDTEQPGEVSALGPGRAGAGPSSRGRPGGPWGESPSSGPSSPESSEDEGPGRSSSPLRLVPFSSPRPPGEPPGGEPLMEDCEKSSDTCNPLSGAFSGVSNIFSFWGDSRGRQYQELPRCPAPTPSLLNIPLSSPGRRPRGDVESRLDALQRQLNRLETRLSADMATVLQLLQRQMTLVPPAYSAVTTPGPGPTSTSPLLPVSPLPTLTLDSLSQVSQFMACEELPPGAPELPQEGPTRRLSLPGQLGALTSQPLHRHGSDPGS
As for `Cn1c(S(=O)(=O)c2ccc([N+](=O)[O-])cc2)nc(Br)c1Br`, the “hERG current change (%, negative = inhibition) at 10uM” value is on record as 1.03%. `COc1cc(-c2nnc(CSc3nnc(Nc4ccc(C(C)C)cc4)s3)o2)cc(OC)c1OC`: the “hERG current change (%, negative = inhibition) at 10uM” value is given as -25.8%. For the compound `CC(C)Cc1nnc(NC(=O)CCC(=O)N2CCOCC2)s1`, the “hERG current change (%, negative = inhibition) at 10uM” value is recorded as -10.7%. The same measure for `CCOc1ccc(CCNC(=O)COC(=O)c2ccc3c(c2)OCCO3)cc1OCC`: -6.17%; for `O=C1NC(Cc2ccccc2)C(=O)N1Cc1cc([N+](=O)[O-])cc2c1OCOC2` (stereo not drawn): 7.47%. In the case of `CC(=O)Nc1nonc1-c1nc2ccccc2n1Cc1ccccn1`, the “hERG current change (%, negative = inhibition) at 10uM” value was -24.7%. As for `C#CCOCCOCCOCCNc1nc(N2CCN(C(=O)CCCCCCCCCCNC(=O)Cn3cc(C[C@@H](C)O)nn3)CC2)nc(N2CCN(C(=O)CCCCCCCCCCNC(=O)[C@@H](CCC(=O)O)n3cc(CCCCCN)nn3)CC2)n1`, the “hERG current change (%, negative = inhibition) at 10uM” value is 10.7%.

Consider `COC(=O)c1ccccc1S(=O)(=O)N1CCC(C(=O)NC2CCCCC2C)CC1` (stereo not drawn), for which the “hERG current change (%, negative = inhibition) at 10uM” value was -1.87%.

Consider `Clc1cccc(CSc2nnc(-c3ccccn3)n2Cc2ccco2)c1`, for which the “hERG current change (%, negative = inhibition) at 10uM” value is -35.7%. As for `CCN(CC(=O)Nc1ccc2c(c1)OCCO2)C(=O)c1ccc([N+](=O)[O-])s1`, the “hERG current change (%, negative = inhibition) at 10uM” value is -9.59%. Consider `CC(C)Oc1cccc(C(=O)C2CCCN(C(=O)c3cc(C(F)(F)F)[nH]n3)C2)c1` (stereo not drawn), for which the “hERG current change (%, negative = inhibition) at 10uM” value is listed as -14.4%. The same measure for `Cc1ccc(NC(=O)CN2C(=O)CNC2=O)cc1`: 8.33%; for `COc1cccc(N(CC(=O)N2CCc3ccccc3C2)S(C)(=O)=O)c1`: -26.7%. With `CN(Cc1nc(-c2ccccn2)no1)S(=O)(=O)c1ccc(Br)cc1`, the “hERG current change (%, negative = inhibition) at 10uM” value was -4.39%.

With `FC(F)(F)c1ccc(-c2noc(CN3CCCN(C4CCCCC4)CC3)n2)cc1`, the “hERG current change (%, negative = inhibition) at 10uM” value is -75.7%. As to `CCOC(=O)C1=C(COC(=O)COc2ccc(Br)cc2)NC(=O)NC1C` (stereo not drawn), the “hERG current change (%, negative = inhibition) at 10uM” value worked out at 2.16%. For the compound `Cc1ccc(Cn2c(=N)c(C(=O)NCC3CCCO3)cc3c(=O)n4cccc(C)c4nc32)cc1` (stereo not drawn), the “hERG current change (%, negative = inhibition) at 10uM” value is reported as -81.5%. The same measure for `COc1ccc(-c2cc(CN3C(=O)c4ccccc4C3=O)on2)cc1`: 4.86%; for `COc1ccc2c(C(=O)CCl)c[nH]c2c1`: -1.84%. For `CCOc1ccc2[nH]c(=O)c(CN(Cc3nnnn3CCc3ccccc3)CC3CCCO3)cc2c1` (stereo not drawn), the “hERG current change (%, negative = inhibition) at 10uM” value is -45.4%. Take `CC(C)(CN1CCOCC1)NS(=O)(=O)c1ccccc1`: the “hERG current change (%, negative = inhibition) at 10uM” value is on record as -1.36%. Regarding `Cc1cccn2c(=O)nc(SCC(=O)NCc3ccccc3Cl)nc12`, the “hERG current change (%, negative = inhibition) at 10uM” value is -13.4%.

For the compound `Cc1cc(C(=O)Nc2ccc(Cl)cc2)n(-c2ccccc2)n1`, the “hERG current change (%, negative = inhibition) at 10uM” value stood at 1.48%. The same measure for `CC1CCc2sc3c(c2C1)c1ncnn1c(=O)n3CC(=O)c1ccc(Br)cc1` (stereo not drawn): 14.2%; for `CCN1C(=O)N(S(=O)(=O)C(F)(F)F)[C@@H](c2ccccc2)C(C(=O)OC)=C1C`: 1.23%; for `O=C(NCCOC(=O)c1ccc(C(=O)OCCNC(=O)c2ccccc2)o1)c1ccccc1`: 16.3%. As for `O=C(Cn1cc2c(n1)CCCC2)NCc1ccccn1`, the figure is 11.9%; as for `Cc1[nH]c(=O)[nH]c(=O)c1/C=N/NC(=O)[C@H](C)NC(=O)OC(C)(C)C`, 4.09%. Regarding `Cc1ccc(C2=NN(CC(=O)O)C(=O)CC2)cc1`, the “hERG current change (%, negative = inhibition) at 10uM” value is -51.4%. Consider `Cc1noc(C)c1COC(=O)c1cc(F)c(F)cc1Cl`, for which the “hERG current change (%, negative = inhibition) at 10uM” value is 1.55%. `Cc1nc(N2CCCCC2)c2ccsc2n1.O=C(O)C(=O)O`: the “hERG current change (%, negative = inhibition) at 10uM” value is -2.23%.

Turning to `C=CCn1c(SCc2cc([N+](=O)[O-])cc3c2OCOC3)nc2cc(C(=O)O)ccc2c1=O`, the “hERG current change (%, negative = inhibition) at 10uM” value is -7.17%. Consider `COc1ccc(N(CC(=O)NCc2ccco2)S(=O)(=O)c2ccc(OC)c(OC)c2)cc1`, for which the “hERG current change (%, negative = inhibition) at 10uM” value was -19.6%. With `CC(NC(=O)CCN1N=C(c2ccccc2)CCC1=O)c1ccc2c(c1)OCCO2` (stereo not drawn), the “hERG current change (%, negative = inhibition) at 10uM” value is 10.3%. Take `CCN1C[C@@]2(COC)C3[C@@H](OC)[C@H]4[C@@H]1[C@@]3(C1C[C@H]3[C@H](OC(=O)c5ccccc5)C1[C@]4(OC(C)=O)C[C@H]3OC)[C@@H](OC)C[C@H]2O` (stereo partly drawn): the “hERG current change (%, negative = inhibition) at 10uM” value is on record as -14.1%. Take `Cc1ccc(NC(=O)CN(C)C(=O)COC(=O)/C=C/c2cccs2)cc1`: the “hERG current change (%, negative = inhibition) at 10uM” value came to 16.6%. With `Cc1cc(F)ccc1S(=O)(=O)NCC(c1ccc2c(c1)OCO2)N1CCOCC1` (stereo not drawn), the “hERG current change (%, negative = inhibition) at 10uM” value is on record as -16.8%.

In the case of `Cl.ClC(CCN1CCN(Cc2ccccc2)CC1)c1ccccc1` (stereo not drawn), the “hERG current change (%, negative = inhibition) at 10uM” value was -20.6%. `Cc1cc(C)nc(N2CCC(C(=O)Nc3cccc(C(F)(F)F)c3)CC2)n1`: the “hERG current change (%, negative = inhibition) at 10uM” value is recorded as -17%. For the compound `COc1cc(/C=N/NC(=S)NCC2CCCO2)cc(OC)c1OC` (stereo not drawn), the “hERG current change (%, negative = inhibition) at 10uM” value is -10.5%. Regarding `CC1(C)Cc2noc(N)c2C(C)(C)N1OC(=O)c1ccccc1`, the “hERG current change (%, negative = inhibition) at 10uM” value is on record as -11.8%. On to `CCN(C(=O)CN1CCN(C)CC1)c1cccc2ccccc12.O=C(O)C(=O)O`, for which the “hERG current change (%, negative = inhibition) at 10uM” value is on record as -7.33%.
